Measured values from article PMC8406179.
Substitutions are numbered along the chain they refer to. Names may count otherwise. Results are given in words; binding and its absence hold for the method and conditions named. Binding seen in cells or lysates may run through a third protein. Some binding calls cover weakened binding; strength is not graded here. For some assays here: Tags and fused reporters may be left off the sequences shown.

The chains behind the UniProt entries cited, without tags or fusion partners.
UniProt P03129: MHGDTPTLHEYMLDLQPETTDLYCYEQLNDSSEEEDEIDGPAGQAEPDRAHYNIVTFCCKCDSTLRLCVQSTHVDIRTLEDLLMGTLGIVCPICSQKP

B1: wild-type RB1 (expression vector, SAOS-2) (protein, UniProt P06400 1-928)
chain: MPPKTPRKTAATAAAAAAEPPAPPPPPPPEEDPEQDSGPEDLPLVRLEFEETEEPDFTALCQKLKIPDHVRERAWLTWEKVSSVDGVLGGYIQKKKELWGICIFIAAVDLDEMSFTFTELQKNIEISVHKFFNLLKEIDTSTKVDNAMSRLLKKYDVLFALFSKLERTCELIYLTQPSSSISTEINSALVLKVSWITFLLAKGEVLQMEDDLVISFQLMLCVLDYFIKLSPPMLLKEPYKTAVIPINGSPRTPRRGQNRSARIAKQLENDTRIIEVLCKEHECNIDEVKNVYFKNFIPFMNSLGLVTSNGLPEVENLSKRYEEIYLKNKDLDARLFLDHDKTLQTDSIDSFETQRTPRKSNLDEEVNVIPPHTPVRTVMNTIQQLMMILNSASDQPSENLISYFNNCTVNPKESILKRVKDIGYIFKEKFAKAVGQGCVEIGSQRYKLGVRLYYRVMESMLKSEEERLSIQNFSKLLNDNIFHMSLLACALEVVMATYSRSTSQNLDSGTDLSFPWILNVLNLKAFDFYKVIESFIKAEGNLTREMIKHLERCEHRIMESLAWLSDSPLFDLIKQSKDREGPTDHLESACPLNLPLQNNHTAADMYLSPVRSPKKKGSTTRVNSTANAETQATSAFQTQKPLKSTSLSLFYKKVYRLAYLRLNTLCERLLSEHPELEHIIWTLFQHTLQNEYELMRDRHLDQIMMCSMYGICKVKNIDLKFKIIVTAYKDLPHAVQETFKRVLIKEEEYDSIIVFYNSVFMQRLKTNILQYASTRPPTLSPIPHIPRSPYKFPSSPLRIPGGNIYISPLKSPYKISEGLPTPTKMTPRSRILVSIGESFGTSEKFQKINQMVCNSDRVLKRSAEGSNPPKPLKKLRFDIEGSDEADGSKHLPGESKFQQKLAEMTSTRTRMQKQKMNDSMDTSNKEEK
B2: HA-epitope tagged full-length RB1 (amino acid residues 1 to 928) (protein, UniProt P06400 1-928)
chain: B1 chain
B3: HA-epitope tagged RB1 truncation mutant 379-928 (lacking the amino terminus) (domain or fragment, UniProt P06400 379-928)
chain: MNTIQQLMMILNSASDQPSENLISYFNNCTVNPKESILKRVKDIGYIFKEKFAKAVGQGCVEIGSQRYKLGVRLYYRVMESMLKSEEERLSIQNFSKLLNDNIFHMSLLACALEVVMATYSRSTSQNLDSGTDLSFPWILNVLNLKAFDFYKVIESFIKAEGNLTREMIKHLERCEHRIMESLAWLSDSPLFDLIKQSKDREGPTDHLESACPLNLPLQNNHTAADMYLSPVRSPKKKGSTTRVNSTANAETQATSAFQTQKPLKSTSLSLFYKKVYRLAYLRLNTLCERLLSEHPELEHIIWTLFQHTLQNEYELMRDRHLDQIMMCSMYGICKVKNIDLKFKIIVTAYKDLPHAVQETFKRVLIKEEEYDSIIVFYNSVFMQRLKTNILQYASTRPPTLSPIPHIPRSPYKFPSSPLRIPGGNIYISPLKSPYKISEGLPTPTKMTPRSRILVSIGESFGTSEKFQKINQMVCNSDRVLKRSAEGSNPPKPLKKLRFDIEGSDEADGSKHLPGESKFQQKLAEMTSTRTRMQKQKMNDSMDTSNKEEK
B4: RB1^L mutant (I753A; N757A; M761A), LXCXE binding-defective RB1 (protein, UniProt P06400 1-928)
chain: B1 chain with I753A, N757A, M761A

Columns and labels:
[1] = molecular target: FLAG/HA epitope-tagged HPV16 E7 (human papillomavirus type 16) (UniProt P03129); assay: co-IP; SAOS-2 cells cotransfected with HA-tagged RB1 (1-928, 379-928 or 1-792) and FLAG/HA-tagged MmuPV1 E7 or HPV16 E7; immunoprecipitation with FLAG antibodies, HA immunoblot
[2] = molecular target: FLAG/HA epitope-tagged HPV16 E7 (human papillomavirus type 16) (UniProt P03129); assay: co-IP; SAOS-2 cells cotransfected with wild-type RB1 or RB1^L and MmuPV1 E7 or HPV16 E7 expression vectors

Molecule	binding [1]	binding [2]
HA-epitope tagged RB1 truncation mutant 1-792 (lacking the C terminus) (from UniProt P06400 1-792) (domain or fragment)	binds	
B1		binds
B2	binds	
B3	binds	
B4		no binding
